3 molecules from PubChem BioAssay (NCI) can be followed below.

Molecules are shown by their SMILES.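 Each compound was tested at five concentrations against cells in 96-well plates for 48 hours. TGI denotes the concentration required for complete inhibition of growth.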 A number of entries come with more than one value. This list holds those alone. There may be further records. A record mostly stands for its own series of concentrations, which the source does not state; some values may only mark the edge of a range.

What all share (assay): inhibition of tumour cell growth, NCI panel, 48 h
The subject of experiment [1] is RPMI-8226 leukemia.
In experiment [2] the test system is CCRF-CEM leukemia.
Experiment [3] has as its system HL-60(TB) leukemia.
Experiment [4] has as its system SR leukemia.
The test system of experiment [5] is A498 renal.

As to `CC(C)=CCC(OC(=O)C=C(C)C)C1=CC(=O)c2c(O)ccc(O)c2C1=O` (stereo unspecified), the TGI is > 100 µM and 1.76 µM in experiment [1]; > 100 µM and 1.05 µM in experiment [2].
Consider `COc1cc2cc(C(=O)N3CC(COS(C)(=O)=O)c4ccc(O)cc43)[nH]c2c(OC)c1OC` (stereo unspecified), for which the TGI in experiment [3] is 3.59 nM and 106 nM; in experiment [4], 167 nM and > 100 µM; in experiment [1], 0.217 nM and 545 nM.
Turning to `CC1=C2C(=CO[C@H](C)[C@H]2C)C(=O)C(C(=O)O)=C1O`, the TGI in experiment [5] was 64.1 µM and 2.07 µM.
